{"source": "ChEMBL document CHEMBL4888484", "about": "“Replenishing the malaria drug discovery pipeline: Screening and hit evaluation of the MMV Hit Generation Library 1 (HGL1) against asexual blood stage Plasmodium falciparum ,using a nano luciferase reporter read-out” (2022)", "note": "About 540 (0.36%) of roughly 150,000 compounds showed an effect of 50% or more. This is one part of the list.", "data": [{"test_system": "Plasmodium falciparum", "assay": "Primary screen in NF54 nanoGlo assay, in single point, at 2uM, 72h; a lower Z score goes with more inhibition", "type": "functional, Erythrocyte", "conditions": "timepoint 72 hour", "units": {"% Inhibition": "%"}, "values": [{"smiles": "CC(C)(C)OC(=O)NCCc1nnc2n1CCCC2", "% Inhibition": 0, "Z score": 0.01}, {"smiles": "CN(CCN1CCOCC1)c1nnc(-c2ccccc2)s1", "% Inhibition": -13, "Z score": 2.61}, {"smiles": "Cc1ccc([C@H](CNC(=O)c2ccc(Br)cc2)N2CCCCC2)o1", "% Inhibition": 4, "Z score": -0.61}, {"smiles": "CCN1CCN(S(=O)(=O)c2cc(-c3nc(-c4cccc(F)c4)no3)sc2C)CC1", "% Inhibition": -4, "Z score": 0.59}, {"smiles": "COc1ccc(N2C(=O)N[C@@](NC(=O)c3cccc(Cl)c3)(C(F)(F)F)C2=O)cc1", "% Inhibition": -7, "Z score": 0.65}, {"smiles": "O=C(Nc1cccnc1)[C@@H]1CC=CCC1", "% Inhibition": -12, "Z score": 2.35}, {"smiles": "Cc1cn(C(C)(C)C(=O)N2CCO[C@H]3COCC[C@H]32)cn1", "% Inhibition": -7, "Z score": 1.11}, {"smiles": "COc1ccc(N2CCN(c3c4c(nc5nc(C)nn35)CCCC4)CC2)cc1", "% Inhibition": -4, "Z score": 0.71}, {"smiles": "CCCCN1CCN(c2cncc(C(=O)N(C)C)n2)CC1=O", "% Inhibition": -8, "Z score": 0.77}, {"smiles": "COc1cncc(S(=O)(=O)N2CCCCc3cc(Cl)ccc32)c1", "% Inhibition": 3, "Z score": -0.47}, {"smiles": "O=C(c1ccc(-c2ccccc2)s1)N1CC[C@H](CN2CCCCC2)C1", "% Inhibition": -9, "Z score": 1.23}, {"smiles": "Cc1cc(COC(=O)CCc2c[nH]c3ccccc23)no1", "% Inhibition": 9, "Z score": -1.39}, {"smiles": "CCC1=C(c2ccc(C)cc2)S(=O)(=O)N=C1NCC(=O)NCc1cc(OC)ccc1OC", "% Inhibition": -14, "Z score": 1.41}, {"smiles": "CC1CN(Cc2ccccn2)CCN1CC(O)c1ccccc1", "note": "(stereo not drawn)", "% Inhibition": -3, "Z score": 0.37}, {"smiles": "Cc1ccc(C2CCCCCN2CC(O)CN2CCOCC2)o1", "note": "(stereo not drawn)", "% Inhibition": -1, "Z score": 0.07}, {"smiles": "CC1CN(C(=O)C2CCCN(CC(F)(F)F)C2)c2cccnc2O1", "note": "(stereo not drawn)", "% Inhibition": -12, "Z score": 1.35}, {"smiles": "CC(=O)Nc1nc(C(=O)OCC(C)(C)c2ccccc2)cs1", "% Inhibition": -4, "Z score": 0.41}, {"smiles": "O=C(NC1CCS(=O)(=O)C1)[C@H](Cc1ccccc1)n1c(=O)[nH]c2ccccc2c1=O", "note": "(stereo partly drawn)", "% Inhibition": -19, "Z score": 2.38}, {"smiles": "O=C(NCc1ccccc1)c1csc(CN(CCC(c2ccccc2)c2ccccc2)Cc2ccc(F)cc2)n1", "% Inhibition": 2, "Z score": -0.43}, {"smiles": "Cc1[nH]n(-c2ccccc2)c(=O)c1[C@]1(C(F)(F)F)NC(=O)N(Cc2ccccc2)C1=O", "% Inhibition": -4, "Z score": 0.48}, {"smiles": "O=C(Nc1cccnc1)c1cc(O)ncn1", "% Inhibition": 1, "Z score": -0.14}, {"smiles": "Cc1noc(-c2ccc(S(=O)(=O)NCc3ccco3)o2)c1C", "% Inhibition": -9, "Z score": 1.61}, {"smiles": "COCCN(CC(=O)Nc1nc(-c2ccccc2)cn1-c1ccc(C(F)(F)F)cc1)C(=O)c1cccs1", "% Inhibition": -14, "Z score": 2.08}, {"smiles": "CCc1csc(CNC(=O)[C@H]2CCc3nn(C)c(=O)n3C2)n1", "% Inhibition": -15, "Z score": 2.1}, {"smiles": "Cc1cc(CNC(=O)c2ccc3nc(-c4ccc(F)cc4)cn3c2)no1", "% Inhibition": -21, "Z score": 1.93}, {"smiles": "CC1C[S+]([O-])CCN1CCC(=O)Nc1cc(S(=O)(=O)N2CCCC2)ccc1Cl", "note": "(stereo not drawn)", "% Inhibition": -1, "Z score": 0.17}, {"smiles": "CN(CCn1occ(Br)c1=O)c1ccccc1", "% Inhibition": -16, "Z score": 1.43}, {"smiles": "Cc1nn(-c2ccccc2)c(C)c1C(=O)Nc1ccc2c(c1)OC(F)(F)O2", "% Inhibition": 1, "Z score": -0.19}, {"smiles": "CC(=O)N1CCC(N2C[C@H](O)C[C@H]2c2nc(-c3cccc(C)c3)no2)CC1", "% Inhibition": -9, "Z score": 1.54}, {"smiles": "CN1CCC(CNC(=O)C(C)(C)C)CC1", "% Inhibition": -11, "Z score": 1.68}, {"smiles": "COc1cccc(OCc2nc(C(=O)N3CCN(c4ccccn4)CC3)co2)c1", "% Inhibition": 4, "Z score": -0.72}, {"smiles": "CCc1ccc(CN(C)C(=O)C[C@]2(c3cccc(OC)c3)CC(=O)N(CCOC)C2=O)cc1", "% Inhibition": -12, "Z score": 1.71}, {"smiles": "COCCN1C[C@@H](Cc2cc(O)c(F)c(F)c2)CC1=O", "% Inhibition": 0, "Z score": 0.02}, {"smiles": "O=C([C@@H]1CCCc2ccccc21)N(CC(F)(F)F)C1CCC1", "% Inhibition": -9, "Z score": 0.8}, {"smiles": "COCCS(=O)(=O)c1ccc(-c2nc([C@H]3CCO[C@@H]3C(C)(C)C)no2)cc1", "% Inhibition": -11, "Z score": 1.49}, {"smiles": "COC(C)(C(=O)N1CCC2(CNC(=O)C2)C1)C1CC1", "note": "(stereo not drawn)", "% Inhibition": -8, "Z score": 1.48}, {"smiles": "Cc1cc(C)n(-c2ccc(C(=O)N3CCCOCC3)cc2)n1", "% Inhibition": -15, "Z score": 2.83}, {"smiles": "CC[C@@H](CC#N)NC(=O)c1cc(CN2CCCC2)on1", "% Inhibition": 0, "Z score": -0.01}, {"smiles": "O=C(NCc1ccc(Cl)cc1Cl)[C@H]1CCCN(C(=O)c2ccoc2)C1", "% Inhibition": 3, "Z score": -0.53}, {"smiles": "Cc1occc1C(=O)NCc1cccnc1N1CCC[C@H](O)C1", "% Inhibition": -9, "Z score": 1.6}, {"smiles": "CCN(C(=O)c1cn(C(C)(C)C)nn1)c1ccc(C(F)(F)F)cc1", "% Inhibition": -13, "Z score": 1.41}, {"smiles": "Cc1cc(C)cc(NC(=O)c2nc3c(=O)n(Cc4ccc(Cl)cc4)c4cc(C)ccc4n3n2)c1", "% Inhibition": -3, "Z score": 0.53}, {"smiles": "OCC[C@H]1CCc2ccccc2N1Cc1ncnn1CC(F)F", "% Inhibition": -17, "Z score": 2.11}, {"smiles": "Cn1ccn2ncc(C(=O)N3CC[C@@H]4OCc5cnnn5[C@@H]4C3)c12", "% Inhibition": -18, "Z score": 3.1}, {"smiles": "CCCCN(CC(N)=O)C(=O)Cc1ccc(C)cc1", "% Inhibition": 0, "Z score": -0.06}, {"smiles": "O=C1N2CCCc3cccc(c32)C12OCCO2", "% Inhibition": -10, "Z score": 1.61}, {"smiles": "Cc1cc(-c2nc(-c3ccc4[nH]c(=O)[nH]c4c3)cs2)ccc1F", "% Inhibition": -2, "Z score": 0.34}, {"smiles": "CS(=O)(=O)CC1(NC(=O)c2ccsc2C(F)F)COC1", "% Inhibition": -8, "Z score": 0.86}, {"smiles": "CC1CC(C)CN(C(=O)c2ccc3c(=O)n4c(nc3c2)CCCC4)C1", "note": "(stereo not drawn)", "% Inhibition": -3, "Z score": 0.52}, {"smiles": "CC[C@H]1COCCN1C(=O)[C@H](Cc1ccccc1)N(C)C", "% Inhibition": -13, "Z score": 1.79}, {"smiles": "Cc1nn(C)c(Cl)c1CN(C)C(=O)[C@H]1CCOC1", "% Inhibition": -6, "Z score": 1.13}, {"smiles": "CC(C)Cc1cc(C(=O)N2CC[S@@+]([O-])C(C)(C)C2)[nH]n1", "% Inhibition": -10, "Z score": 1.05}, {"smiles": "O=C([C@H]1CC(=O)N(C2CCOCC2)C1)N1CCN(c2ncccn2)CC1", "% Inhibition": -10, "Z score": 1.51}, {"smiles": "CC[C@H](C)Cc1nc(-c2cc(C(F)F)nn2C)n(CCO)n1", "% Inhibition": 11, "Z score": -1.48}, {"smiles": "O=c1ccc2[nH]ccc2n1C[C@H]1COCCO1", "% Inhibition": 2, "Z score": -0.33}, {"smiles": "CCOC(=O)[C@@H]1CCCCN1CCN1C(=O)NC(C)(C)C1=O", "% Inhibition": -4, "Z score": 0.56}, {"smiles": "Cc1cc(F)ccc1C(=O)N1CCC2CCC(C1)N2C(C)C", "note": "(stereo not drawn)", "% Inhibition": -11, "Z score": 1.95}, {"smiles": "Cc1cc2n(n1)[C@H](C(F)(F)F)CCN2C(=O)c1cccc(=O)n1C", "% Inhibition": -11, "Z score": 1.68}, {"smiles": "COc1cccc2nc(NC(=O)N3CCN(C)[C@H](c4nc(C)no4)C3)sc12", "% Inhibition": 5, "Z score": -1.02}, {"smiles": "c1ccc2oc(NC[C@H]3CN(C4CC4)CCO3)nc2c1", "% Inhibition": 1, "Z score": -0.12}, {"smiles": "COC(=O)C1CC(O)CN1Cc1cnn(C)c1C(F)(F)F", "note": "(stereo not drawn)", "% Inhibition": 3, "Z score": -0.35}, {"smiles": "Cc1cccc(CN2CCC(O)(c3ccc4oc(C(=O)N5C[C@@H](C)O[C@@H](C)C5)cc4c3)CC2)c1", "% Inhibition": 1, "Z score": -0.26}, {"smiles": "O=S(=O)(c1cc(Cl)ccc1F)N1CCC[C@H](n2ccnn2)C1", "% Inhibition": -1, "Z score": 0.17}, {"smiles": "CCOc1cc(C(N)=O)cc(Br)c1OCC", "% Inhibition": -3, "Z score": 0.52}, {"smiles": "CC1(C(=O)O)CCN(Cc2ccccc2OCCN2CCOCC2)CC1", "% Inhibition": 9, "Z score": -1.3}, {"smiles": "CNc1nc(C(=O)N2CCN([C@H](C#N)c3ccccc3)CC2)cs1", "% Inhibition": -2, "Z score": 0.22}, {"smiles": "O=C(c1cc(C2CC2)[nH]n1)N1C[C@H]2CC[C@@H](O)[C@H]2C1", "% Inhibition": -9, "Z score": 0.88}, {"smiles": "Cc1csc(C(=O)Nc2cnc3cc(C)nn3c2)c1", "% Inhibition": -16, "Z score": 2.01}, {"smiles": "O=C(NCc1cccc(C(F)(F)F)c1)c1coc(CN2CCN(Cc3ccc(F)cc3F)CC2)n1", "% Inhibition": -8, "Z score": 1.32}, {"smiles": "O=C(CC1CC2CCC1O2)NS(=O)(=O)c1ccc2c(c1)C(=O)CCC2", "note": "(stereo not drawn)", "% Inhibition": -9, "Z score": 1.66}, {"smiles": "Cc1ccc(CNCc2c(C(=O)O)c(C)n(-c3ccc(Cl)cc3)c2C)cc1", "% Inhibition": -8, "Z score": 0.99}, {"smiles": "COCc1n[nH]c(-c2ccc3c(c2)OCO3)n1", "% Inhibition": -6, "Z score": 1.2}, {"smiles": "CCN1c2ccccc2C(=O)NC12CCN(C(=O)c1ccc(F)cc1)CC2", "% Inhibition": -3, "Z score": 0.52}, {"smiles": "COc1ccc(CCNC(=O)C(=O)Nc2ccc(N3CCCS3(=O)=O)cc2)cc1", "% Inhibition": -13, "Z score": 1.72}, {"smiles": "O=C(Nc1cccc(-c2cc(F)cc3cccnc23)c1)c1ccc2c(c1)OCO2", "% Inhibition": -8, "Z score": 1.54}, {"smiles": "COc1ccc(NC(=O)N(C)C2CCCC2S(C)(=O)=O)cc1OC(F)F", "note": "(stereo not drawn)", "% Inhibition": 1, "Z score": -0.17}, {"smiles": "O=C(Nc1nc(CN2CCc3ccccc3C2)cs1)c1ccccc1Cl", "% Inhibition": -4, "Z score": 0.86}, {"smiles": "Cc1ccsc1CN(C)S(=O)(=O)N1CC(C)OCC1C", "note": "(stereo not drawn)", "% Inhibition": -7, "Z score": 0.89}, {"smiles": "CC[C@H](C)Oc1c(CN2CCC3(CC2)CN(C)CCN3C)cccc1OC", "% Inhibition": -28, "Z score": 2.5}, {"smiles": "CC[C@H](C)CNC(=O)c1n[nH]c2c1CN(C(=O)Cc1ccc(C)cc1)CC2", "% Inhibition": -8, "Z score": 1.27}, {"smiles": "CN(Cc1cnn(-c2ccccc2)c1)c1ccc(C(N)=O)cn1", "% Inhibition": -2, "Z score": 0.23}, {"smiles": "CCNC(=O)CCN(C)Cc1cccnc1", "% Inhibition": -7, "Z score": 0.64}, {"smiles": "O=C(N[C@@H](Cc1c[nH]c2cc(F)ccc12)C(=O)O)c1ccsc1", "% Inhibition": -4, "Z score": 0.37}, {"smiles": "CNC(=O)[C@@H]1CCCN1C(=O)NCc1ccco1", "% Inhibition": 28, "Z score": -3.7}]}]}
